From PubChem BioAssay (NCI) come the findings set out here.

The subject of one test is SN12C renal. In words: NCI-60 one-dose screen, 48 h (100 = growth as untreated, 0 = no growth, -100 = all killed). The following applies: 25 µM.
In the next test the test system is UO-31 renal. The description is as above. Conditions: 0.25 µM.

Where a structure was tested more than once in an assay, its records may differ in their call.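 Method: cells in 96-well plates; compound added at one concentration; 48 h incubation; percent growth measured; values under 10 scored active.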 Certain results were filed several times, with different values. The other results are left out here. An entry can have further records. This drug was run again and again over the years, at the concentration stated with the values; one value stands for one run. Brackets with × say how often a value occurs here.

Regarding `COc1cccc2c1C(=O)c1c(O)c3c(c(O)c1C2=O)C[C@@](O)(C(=O)CO)C[C@@H]3OC1CC(N)C(O)C(C)O1` (stereo not given in full), the growth entry with SN12C renal (runs of 1995) is “active: 2.85, -1.16, -43.4, -20.8, -46.2, -12.5, -3.01, -3.12, -23.7, -2.79, -22.6, -36.1, -6.08, -10.1, 1.62, -2.22, -15.1, -6.5, -24.2, -5.99, -45.1, -62.6, 1.72, -25.4, -27.7, -12.6, -17.7, -20.6, -46.3, -11.1, -6.84, -8.17, -13, -17.9, -17.8, -32.8, -42, -13.8, -5.85, 1.76%”; in the test on SN12C renal (runs of 1996) it was “active: -28.2 (2×), 5.51, 2.91, 6.16, -3.86, -9.15, -89.5, -15.4, 0.691, 3.34, -7.95, -13.9, -49, -13.5, -38.4, -51.3, -15.9, -17.6, -45.6, -21.3, 4.04, -2.96, 2.97, -27.5, 4.98, -26.2, 8.44, -31.4, -47.3, -38.2, -35.2, 3.32, -23.7, -48.3, 0.909, -46.1, -7.98, -32.8, -29.7, -37.8, -30.8, -45.1, -34.2, -16.5, -54.6, -39.5, -83.5, -61.8, -3.06, -7.01, -21.1, -37.1% and inactive: 101%, 24%”; in the test on SN12C renal (runs of 1997), “active: -22.4, -4.38, -42.8, -26.7 (2×), -31.9, -47.5, -38.8, -27.4, -18.3, -37.3, -29.1, 6.98, -16, -19.8, -19.7, -59.2, -40.9, -38.1, -59.9, -11.7, -24.7, -29.8, -35.2, -64.5, -20.2, -38.2, -40.7, -30.4, -14.7, -31.5, -10.5, -24.4, -32.3, 1.47, -39.4, -33.9, -32.4, -25.8, -62.3, -51.5%”; in the test on SN12C renal (runs of 1998) it was “active: -41.2, -20.3, -73.1, -33.3, 0.263, -56.6, -93.6, 1, -44.5, -27.4, 6.4, -57.1, -73.5, -53.9, -27, -63.2, -34.5% and inactive: 23.8%”; in the test on SN12C renal (runs of 1999) it was “active: -30.2, -33.3, -13, -45.8, -24.7, -54.6, -100 (3×), -75.9, -58.7, -47.4, -69.1, 5.99, 4.42, -94.3, -83.2, -68.6%”; with SN12C renal (runs of 2000), “active: -100% (2×), -58.5%, -61.1%”. In addition, the growth result with UO-31 renal (runs of 2006) was “inactive: 64%, 59.9%”; in the test on UO-31 renal (runs of 2007), “inactive: 49.4, 42.8, 47.3, 65.7, 57.9, 72.2 (2×), 71, 50.5, 52.8, 45.2, 38, 73.8, 67.5, 76.5, 75.1, 75.3 (3×), 85.6, 69.5, 71.8, 87.3, 76.2, 54.2, 43.8, 34.6, 72.6, 74.2, 43.5, 59.7, 56.9, 93.8, 85.3, 75.5, 74.4, 64.8, 78.7% and active: 1%”; in the test on UO-31 renal (runs of 2008), “inactive: 65, 76.9, 67.3, 65.4, 80.2, 70.9, 68.8, 78.5, 66 (2×), 63.2, 41.7, 68.1, 68.6 (2×), 76.7, 47.6, 53.3, 64.8, 69, 66.4, 60.3, 47, 49.9, 57.2, 57.8, 63.8, 68.2, 63.4, 92.3, 54.3, 66.8 (2×), 68, 64.2, 59.1, 43.6, 57, 62.4, 65.6, 76.5, 73.6, 68.3, 80.6, 69.7, 66.1, 40.1, 64, 51.9%”; with UO-31 renal (runs of 2009) it was “inactive: 76.6, 67.6, 68.3, 81.4, 88.7, 93.6, 81.5 (2×), 72.4, 77.1, 71.9, 78.2, 73.1, 67.9, 72.5, 75.4, 75.6, 73.2 (2×), 81.8 (2×), 78 (2×), 71.6, 73.9, 76.3, 69.7, 55.4, 57, 64, 65.6, 59.1, 60.9, 76, 64.5, 63.1, 72.9 (2×), 67.5, 80.4, 56.1, 51.7, 54.8, 54, 68, 55.8, 65.9, 58, 75.3, 71, 71.2, 93.1 (2×), 76.8, 65.4, 79.5, 83.9, 88.1, 84.1, 83.5, 90.6, 81, 75.5, 84%”; with UO-31 renal (runs of 2010), “inactive: 73.7, 84.9, 76.4, 78.8 (2×), 79.8 (2×), 63.7, 81.1, 72.5, 77.2 (2×), 79.6, 72.9, 83.7, 75.6, 81.7, 93.6, 57.4, 77.4, 49.5, 76.5 (2×), 70.2, 69.3, 73.9, 70, 53.3, 79.1, 38.9, 67.7, 75.7, 72.4 (2×), 68.1, 69.6, 72.1, 78.6, 73.8, 77.6, 77.5, 82.1, 74.7, 74.2, 77.1, 75.5, 85.1, 84.1%”; in the test with UO-31 renal (runs of 2011) it was “inactive: 78.6, 70.3, 80.4 (2×), 79.5, 84 (3×), 68.1, 65.9, 78.5, 89.5, 81.7 (2×), 82.3, 74.2, 86.6, 84.3 (2×), 72, 86.3, 86.9, 87.1, 86.4, 80.1, 76.2, 66.7, 75.1 (2×), 73.9 (2×), 59.2, 66, 72.7, 58.5, 60.3, 62.3, 57.7, 75.5, 78.2, 65.6, 69.7, 67.9, 72.2 (2×), 57.6, 72.6, 71.9, 67, 63.4, 69.5, 70.9, 76.6, 73.8%”. Moreover, the growth entry in the test with UO-31 renal (runs of 2012) was “inactive: 73.2, 77.1 (2×), 73.7 (2×), 78, 74.1, 82.2, 80.4, 74.2, 71.2, 84.3, 70.8 (3×), 76.3, 79.4 (2×), 75.8, 87.6, 79.2, 82.3, 86.2, 80.7 (2×), 86.3, 85.1 (2×), 85.8, 73.9, 91.7, 81.9, 85 (2×), 79.8, 83, 81.8, 71.1, 84, 82.7, 79.1, 75.3, 79.3, 83.8, 78.8 (2×), 82.8, 77.5, 79, 77.8, 87.1, 84.9, 76.1, 71.4, 76.5, 75.7, 75.4, 78.5, 73.8, 61.8, 40.3%”; with UO-31 renal (runs of 2013) it was “inactive: 63.1 (2×), 69.7, 75.1, 79.3, 73.2, 78.5 (3×), 67.1, 79.5 (2×), 79.1, 76.3, 75.6 (2×), 75.8 (2×), 60, 72.1 (2×), 60.8, 75.5 (3×), 72.6, 72.2, 66.8, 82, 79.8, 70, 83.7 (2×), 85.4, 76.6 (2×), 72.5, 84.8, 79, 68.1, 82.9, 78.1 (2×), 81.2 (2×), 82.8, 77.6 (2×), 81.4, 78.2, 85.1, 73.8, 56.4, 84.9, 74.5, 79.2, 78.3, 78 (2×), 61.8, 54, 61.6, 74.1, 72.7, 81.5, 71.2, 87, 69.4, 71.6, 77.8, 69%”; in the test on UO-31 renal (runs of 2014), “inactive: 78.7 (2×), 72.7, 67, 63.9, 63.5, 67.4, 66.1, 70.4, 68.2, 72.6, 70.2 (2×), 76.6 (2×), 86.4, 82.3, 85.3, 76.8 (2×), 84.1, 82, 80.2, 73.9 (2×), 76.7, 79.8, 81.2 (4×), 73.5 (2×), 81, 79.3, 76.9, 75.8, 69.4 (2×), 74.4, 77.5, 76.3, 68.4 (2×), 74.8, 69.3, 73.8 (2×), 75.5, 78.5, 71.1 (2×), 74.1, 83.9, 74.7, 73.7, 72.4, 72.2 (2×), 72.3, 68.1, 73.6, 73.3, 70, 71, 74.5, 78.8, 75.4%”.
